Test results taken from PubChem BioAssay (NCI).
Where “and” joins values, the source holds several entries; their conditions need not be identical. Identical values can stand only once.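 These data come from cells grown in 96-well plates and exposed to compound for 48 hours at five concentrations. GI50: concentration for 50% inhibition of growth. TGI: concentration producing complete growth inhibition.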 Square brackets hold non-standard residues; d marks the D form. Peptide text beside a SMILES is read from it. * marks the point of attachment. Phe(4-NO2) = N[CH](Cc1ccc([N+](=O)[O-])cc1)C(=O)O; Boc = CC(C)(C)OC(=O)*; OBn = c1ccc(CO*)cc1

test system: NCI-H322M lung; assay: NCI-60 cell line screen, 48 h

`Cc1cnc2c(C)ccc([N+](=O)[O-])c2c1NCCCN(C)C` and `Cc1ccc(C)n2c1nc1ccc3ccccc3c12` cannot be ordered by TGI: > 100 µM for the first, > 100 µM for the second.

`CN(C)c1cccc2c(S(=O)(=O)N[C@H]3CC[C@H]4[C@@H]5CCc6cc(O)ccc6[C@H]5CC[C@]34C)cccc12` and `COc1cccc(N2C(=O)C3c4[nH]c5ccccc5c4C4c5ccccc5CCC4C3C2=O)c1` (centres undefined) cannot be ordered by TGI: 25.8 µM for the first, > 10 µM for the second.

`Nn1c(-c2ccccc2)nc2ccc(Br)cc2c1=O` and `Nc1ccn(CCOC(=O)c2ccccc2)c(=O)n1` cannot be ordered by TGI: > 100 µM for the first, > 100 µM for the second.

Going from `CCOC(=O)[C@@]1(C)C=C2O[C@@H]3OC4(CCCCC4)O[C@@H]3C2=C2C(O)=CC=C(O)[C@]21C(=O)OC` to `C=C1C(=O)O[C@H]2[C@H]1CC/C(COC(=O)c1cc3cc(F)ccc3[nH]1)=C\CC[C@@]1(C)O[C@@H]21`, the TGI falls from > 68 µM to 9.68 µM.

Compared with `C=CC[C@H]1[C@@H](O[Si](C)(C)C(C)(C)C)[C@H](n2ccc(=O)[nH]c2=O)O[C@@H]1CO[Si](C)(C)C(C)(C)C`, `CC(=O)OC[C@H]1O[C@@H](O[C@H]2[C@H](OC(C)=O)C=CO[C@@H]2COC(C)=O)C(OC(C)=O)[C@H]2OC(C)(C)O[C@H]21` (some centres undefined) is higher in TGI: 6.27 µM for the first, > 100 µM for the second.

`C=CCn1c2c(c3ccccc3c1=O)C(=O)c1ccccc1-2` and `c1ccc2c(-c3cnc(-c4c[nH]c5ccccc45)cn3)c[nH]c2c1` cannot be ordered by TGI: > 100 µM for the first, > 100 µM for the second.

`COc1ccc(CCn2cnc3ccccc32)cc1` and `COc1ccc2c(c1)OC(c1cccnc1)C(c1ccccc1)C2=O` (centres undefined) cannot be ordered by TGI: > 100 µM for the first, > 100 µM for the second.

First: COC(=O)N[C@H]1CCc2c(Br)c(OC)c(OC)c(OC)c2-c2ccc(SC)c(=O)cc21
Second: COc1ccc2cc(C(=O)/C=C/c3cc(OC)c(OC)c(OC)c3)ccc2c1
The TGI of the first is higher: > 100 µM for the first, 19.3 µM for the second.

`CC[C@H](C)N(CCN)C(=O)c1cc2ccccc2c(-c2ccccc2Cl)n1` and `O=C(Oc1ccc(Cl)cc1Cl)c1ccccc1Nc1ccnc(C(F)(F)F)c1` are within 1.5-fold of each other in TGI: 26.4 µM for the first, 28.4 µM for the second.

First: CC(C)/C(Cl)=N/OC(=O)Nc1ccc(F)c(Cl)c1
Second: COc1ccc(Cl)cc1Nc1nc(C(F)(F)F)ccc1C(=O)N/N=C/c1c(Cl)cccc1Cl
The TGI of the first is lower: 32.7 µM for the first, > 100 µM for the second.

Compared with `CC(=O)O/C=C\OC1CCCC1(c1ccccc1)c1ccccc1` (centres undefined), `O=C(Nc1sccc1S(=O)(=O)c1ccccc1)c1cccnc1` is higher in TGI: 25.1 µM for the first, > 100 µM for the second.

First: COc1cc(O)c([C@@H]2C[C@H](CCc3ccc(O)cc3)O[C@H](c3ccc(O)cc3)C2)c(O)c1C(=O)/C=C/c1ccc(O)cc1
Second: C=C1C(=O)O[C@H]2[C@H]1CC/C(Cn1cc(CNC(=O)Cc3cn(C(=O)c4ccc(Cl)cc4)c4ccc(OC)cc34)nn1)=C\CC[C@@]1(C)O[C@@H]21
The TGI of the first is 1.8-fold lower: 12.8 µM for the first, 22.6 µM for the second.

First: CCOC(=O)c1c2c(n3ccc(NC(=O)CCN4CCCC4)cc13)C(=O)c1ncccc1C2=O
Second: O=C(CN1CCN(c2ncccn2)CC1)Nc1ccc(Cl)cc1C(=O)c1ccccc1Cl
The TGI of the first is lower: 3.36 µM for the first, > 100 µM for the second.

`CC(=O)O[C@H]1CC[C@@]2(C)C(=CC[C@@H]3[C@@H]2CC[C@]2(C)C(c4cccnc4)=CC[C@@H]32)C1` and `CC(C)CCCC(C)[C@H]1CCC2[C@@H]3CCC4Cc5nc6c(nc5C[C@]4(C)C3CC[C@@]21C)CC1CC[C@@H]2C(C[C@@H](O)[C@@]3(C)C2C[C@@H]2OC4(CCC(C)CO4)C(C)[C@@H]23)[C@@]1(C)C6` (some centres undefined) cannot be ordered by TGI: > 100 µM for the first, > 100 µM for the second.

`CCCCOC(=O)CNC(=O)OCCCCC#CC#CCCCCOC(=O)NCC(=O)OCCCC` and `COC(=O)CCC(NC(=O)OC(C)(C)C)C(=O)NC(Cc1ccc([N+](=O)[O-])cc1)C(=O)NCC(=O)OCc1ccccc1` (centres undefined) (Boc-Glu(OMe)-[Phe(4-NO2)]-Gly-OBn; configuration not given here) cannot be ordered by TGI: > 100 µM for the first, > 100 µM for the second.

`COC1C(O)CC(OC2C(C)OC(Oc3cc(O)c4c(O)c5c(cc4c3)C[C@@H]([C@H](OC)C(=O)[C@@H](O)[C@@H](C)O)[C@H](OC3CC(OC4CC(OC6CC(C)(O)C(O)C(C)O6)C(O)C(C)O4)C(O)C(C)O3)C5=O)CC2OC(C)=O)OC1C` (some centres undefined) and `CC1OC(OCC2OC(Oc3c(-c4ccc(O)cc4)oc4cc(O)cc(O)c4c3=O)C(OC3OCC(O)(CO)C3O)C(O)C2O)C(O)C(O)C1O` (centres undefined) cannot be ordered by TGI: > 100 µM for the first, > 100 µM for the second.

Compared with `COc1cc(/C(C#N)=C/c2ccc3c(c2OC)OCO3)cc2c1OCO2`, `COc1cc(C2C=C(c3cccc(NC(C)=O)c3)Nc3ncnn32)cc(OC)c1OC` (centres undefined) is higher in TGI: 27.9 µM for the first, > 100 µM for the second.

`Oc1ccc(/C=C\c2nnc(/C=C\c3ccc(O)c(O)c3)s2)cc1O` and `COc1cc(-c2nc3cc(F)ccc3s2)ccc1O` cannot be ordered by TGI: > 53.5 µM for the first, > 100 µM for the second.

Compared with `COc1ccc2nc3cc(Cl)ccc3c(NCCCCCC(=O)NC(COc3cnc4c(ccc5cccnc54)c3)COc3cnc4c(ccc5cccnc54)c3)c2c1`, `Cn1c(=O)nc2n(-c3ccc(Cl)cc3)c3ccc(Cl)cc3nc-2c1=O` is lower in TGI: > 100 µM for the first, 69.3 µM for the second.

First: N#Cc1c(-c2nc3ccccc3s2)c(=O)oc2cc(O)ccc12
Second: O=[N+]([O-])c1cccc(-c2csc(N=Nc3c(O)[nH]c4ccccc34)n2)c1
The TGI of the first is higher: > 100 µM for the first, 92.2 µM for the second.

`Cc1c(-c2c(C)c3ccccc3n2S(=O)(=O)c2ccccc2)n(S(=O)(=O)c2ccccc2)c2ccccc12` and `CN1CC2=C(OC(N)=C(C#N)C2c2cccs2)/C(=C/c2cccs2)C1` (centres undefined) cannot be ordered by TGI: > 100 µM for the first, > 61.8 µM for the second.

`NCCC(N)C(=O)O` (centres undefined) and `COC(=O)CCCc1ccc2c(c1)CC1(C2)Cc2cc3c(cc2C1)CCCC3` cannot be ordered by TGI: > 100 µM for the first, > 100 µM for the second.

First: CN(C)c1cccc2c(S(=O)(=O)N[C@H]3CC[C@H]4[C@@H]5CCc6cc(O)ccc6[C@H]5CC[C@]34C)cccc12
Second: C=C1C(=O)O[C@H]2[C@H]1CC/C(Cn1cc(CNC(=O)Cc3cn(C(=O)c4ccc(Cl)cc4)c4ccc(OC)cc34)nn1)=C\CC[C@@]1(C)O[C@@H]21
The GI50 of the first is 2.7-fold lower: 3.99 µM for the first, 10.6 µM for the second.

First: COC(=O)N[C@H]1CCc2c(Br)c(OC)c(OC)c(OC)c2-c2ccc(SC)c(=O)cc21
Second: COc1ccc2cc(C(=O)/C=C/c3cc(OC)c(OC)c(OC)c3)ccc2c1
The GI50 of the first is lower: < 0.01 µM for the first, 7.96 µM for the second.

Compared with `COc1ccc(Cl)cc1Nc1nc(C(F)(F)F)ccc1C(=O)N/N=C/c1c(Cl)cccc1Cl`, `O=C(Oc1ccc(Cl)cc1Cl)c1ccccc1Nc1ccnc(C(F)(F)F)c1` is 4.8-fold higher in GI50: 2.91 µM for the first, 14 µM for the second.

First: COc1cc(O)c([C@@H]2C[C@H](CCc3ccc(O)cc3)O[C@H](c3ccc(O)cc3)C2)c(O)c1C(=O)/C=C/c1ccc(O)cc1
Second: O=C(CN1CCN(c2ncccn2)CC1)Nc1ccc(Cl)cc1C(=O)c1ccccc1Cl
The GI50 of the first is lower: 3.58 µM for the first, > 100 µM for the second.

Going from `CCOC(=O)c1c2c(n3ccc(NC(=O)CCN4CCCC4)cc13)C(=O)c1ncccc1C2=O` to `C=C1C(=O)O[C@H]2[C@H]1CC/C(COC(=O)c1cc3cc(F)ccc3[nH]1)=C\CC[C@@]1(C)O[C@@H]21`, the GI50 rises from 1.5 µM to 2.69 µM (1.8-fold).

Going from `CC(=O)O[C@H]1CC[C@@]2(C)C(=CC[C@@H]3[C@@H]2CC[C@]2(C)C(c4cccnc4)=CC[C@@H]32)C1` to `COc1cc(C2C=C(c3cccc(NC(C)=O)c3)Nc3ncnn32)cc(OC)c1OC` (centres undefined), the GI50 falls from 27.5 µM to 2.17 µM (13-fold).

For `COc1cc(/C(C#N)=C/c2ccc3c(c2OC)OCO3)cc2c1OCO2`, the GI50 was 0.754 µM.

For `CN1CC[C@@H](c2c(O)cc(O)c3c(=O)cc(-c4ccccc4Cl)oc23)[C@@H](O)C1`, the GI50 was 0.123 µM and 0.0667 µM.

In the case of `CN1CC[C@@H](c2c(O)cc(O)c3c(=O)cc(-c4ccccc4Cl)oc23)[C@@H](O)C1`, the TGI is reported as 0.49 µM and 1.05 µM.
